In all, about 310,000 compounds went through this assay and about 2,200 (0.71%) showed an effect of 50% or more. Effects have a minus sign here. Some of the results follow.
biological target: human ether-à-go-go-related gene (hERG) potassium channel (human, UniProt Q12809); experiment: primary screen, population patch clamp on CHO cells stably expressing hERG
Sequence (Q12809 whole entry, looked up): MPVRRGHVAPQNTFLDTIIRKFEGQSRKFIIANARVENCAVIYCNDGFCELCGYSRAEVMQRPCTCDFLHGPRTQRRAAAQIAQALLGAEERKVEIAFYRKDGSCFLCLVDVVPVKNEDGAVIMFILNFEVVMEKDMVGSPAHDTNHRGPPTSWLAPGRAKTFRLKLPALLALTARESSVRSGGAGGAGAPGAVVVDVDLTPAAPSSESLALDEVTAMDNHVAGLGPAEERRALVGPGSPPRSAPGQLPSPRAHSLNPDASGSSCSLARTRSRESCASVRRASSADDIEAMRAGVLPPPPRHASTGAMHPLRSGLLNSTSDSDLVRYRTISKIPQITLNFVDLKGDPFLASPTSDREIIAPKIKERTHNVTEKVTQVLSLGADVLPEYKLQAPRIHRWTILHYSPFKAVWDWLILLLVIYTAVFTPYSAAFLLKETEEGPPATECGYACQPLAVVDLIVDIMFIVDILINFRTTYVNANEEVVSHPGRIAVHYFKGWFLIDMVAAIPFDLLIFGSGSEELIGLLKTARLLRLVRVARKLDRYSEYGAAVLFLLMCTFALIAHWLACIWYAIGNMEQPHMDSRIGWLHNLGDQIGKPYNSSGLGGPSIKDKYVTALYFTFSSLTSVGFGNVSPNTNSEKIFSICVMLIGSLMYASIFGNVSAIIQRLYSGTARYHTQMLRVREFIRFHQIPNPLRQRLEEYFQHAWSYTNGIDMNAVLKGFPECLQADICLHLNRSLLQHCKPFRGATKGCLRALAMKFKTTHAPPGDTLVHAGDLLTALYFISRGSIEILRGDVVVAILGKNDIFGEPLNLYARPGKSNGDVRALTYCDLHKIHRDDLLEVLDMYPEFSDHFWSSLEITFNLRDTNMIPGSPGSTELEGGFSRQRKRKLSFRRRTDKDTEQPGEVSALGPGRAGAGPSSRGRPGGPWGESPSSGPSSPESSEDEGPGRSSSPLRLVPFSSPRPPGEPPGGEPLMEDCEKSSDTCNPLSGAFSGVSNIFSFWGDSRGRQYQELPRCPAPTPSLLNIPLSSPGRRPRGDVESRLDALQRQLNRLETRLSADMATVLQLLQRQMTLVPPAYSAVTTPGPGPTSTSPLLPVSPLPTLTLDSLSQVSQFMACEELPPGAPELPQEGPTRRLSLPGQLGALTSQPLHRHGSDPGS

**Q.** How did the “hERG current change (%, negative = inhibition) at 1uM” value turn out when `CCCC12CN3CCN(CC(C3)/C1=N\NC(=O)c1ccc(C(C)(C)C)cc1)C2` was run?
**A.** -2.85%

**Q.** With `COc1cc(NC(=S)NC(=O)c2cc(C)cc(C)c2)ccc1NC(=O)c1cccs1` as the molecule, how does the “hERG current change (%, negative = inhibition) at 1uM” value read?
**A.** 23.4%

**Q.** With `O=C(NCc1cccs1)c1cccc(Nc2nc3ccc(Br)cc3[nH]2)c1` as the molecule, how does the “hERG current change (%, negative = inhibition) at 1uM” value read?
**A.** 15.6%

**Q.** For `COc1ccc2cc(S(=O)(=O)N3CCOCC3)ccc2c1`, which “hERG current change (%, negative = inhibition) at 1uM” value is on record?
**A.** -0.435%

**Q.** With `CCOC(=O)CN1NC2(CCC(C(C)(C)C)CC2)NC1=S` (centres unmarked) as the molecule, how does the “hERG current change (%, negative = inhibition) at 1uM” value read?
**A.** 18.9%

**Q.** For `O=c1[nH]cnc2c1C(c1ccccc1[N+](=O)[O-])c1c(nc[nH]c1=O)O2`, which “hERG current change (%, negative = inhibition) at 1uM” value is on record?
**A.** 11.6%

**Q.** How did the “hERG current change (%, negative = inhibition) at 1uM” value turn out when `O=C(N/N=C/c1ccccc1F)C(=O)N1CCCCCC1` was run?
**A.** -4.65%

**Q.** For `O=C1c2ccccc2C(=O)N1CCc1csc(-c2ccccc2)n1`, which “hERG current change (%, negative = inhibition) at 1uM” value is on record?
**A.** -9.26%

**Q.** `N/C(=N\OC(=O)COc1ccc2ccccc2c1Br)c1ccccn1` was tested. Which “hERG current change (%, negative = inhibition) at 1uM” value did it give?
**A.** 15%

**Q.** How did the “hERG current change (%, negative = inhibition) at 1uM” value turn out when `O=C(COC(=O)c1ccc(Sc2ccccc2)c([N+](=O)[O-])c1)NC1CCCc2ccccc21` (centres unmarked) was run?
**A.** 9.71%

**Q.** `Cc1cc(C)n2c(SCC(=O)Nc3ccccc3)nnc2n1` was tested. Which “hERG current change (%, negative = inhibition) at 1uM” value did it give?
**A.** 6.2%

**Q.** With `Cc1ccccc1/C=C1\CCCc2ccccc2C1=O` as the molecule, how does the “hERG current change (%, negative = inhibition) at 1uM” value read?
**A.** 12.6%

**Q.** `Cn1c(=O)cc(OCCCC(=O)NCCN2CCN(c3ccccc3F)CC2)c2ccccc21` was tested. Which “hERG current change (%, negative = inhibition) at 1uM” value did it give?
**A.** 5.61%

**Q.** For `O=S(=O)(Nc1cccc(-c2cn3cccnc3n2)c1)c1ccc(F)cc1`, which “hERG current change (%, negative = inhibition) at 1uM” value is on record?
**A.** 7.11%

**Q.** `CCCCn1c(O)c(C(C)=NCCCn2ccnc2)c(=O)[nH]c1=O` was tested. Which “hERG current change (%, negative = inhibition) at 1uM” value did it give?
**A.** 5.81%

**Q.** How did the “hERG current change (%, negative = inhibition) at 1uM” value turn out when `COc1ccc(NC(=O)COC(=O)Cc2cccs2)cc1OC` was run?
**A.** -2.26%

**Q.** With `Cc1ccccc1CC(=O)NCC1CCCCC1` as the molecule, how does the “hERG current change (%, negative = inhibition) at 1uM” value read?
**A.** 10.8%

**Q.** With `COc1ccccc1CNC(=O)C1CCC(CNc2c(N3CCOCC3)c(=O)c2=O)CC1` (centres unmarked) as the molecule, how does the “hERG current change (%, negative = inhibition) at 1uM” value read?
**A.** 12.7%

**Q.** `CCc1ccc(NC(=O)c2cnc(N3CCN(c4ccccn4)CC3)c3ccccc23)cc1` was tested. Which “hERG current change (%, negative = inhibition) at 1uM” value did it give?
**A.** 12.5%

**Q.** For `CN(C)Cc1c(O)ccc2c(=O)c(-c3ccccc3Cl)c(C(F)(F)F)oc12`, which “hERG current change (%, negative = inhibition) at 1uM” value is on record?
**A.** 8.65%

**Q.** Which “hERG current change (%, negative = inhibition) at 1uM” value does the source give for `Cn1c(SCC(=O)Nc2ccc(Br)cc2)nc(O)cc1=O` here?
**A.** 7.3%

**Q.** How did the “hERG current change (%, negative = inhibition) at 1uM” value turn out when `C1CCN(c2nc3nonc3nc2NCC2CCOCC2)CC1` was run?
**A.** 10.3%

**Q.** For `N#Cc1ccc2c(c1)nc1ccccn12`, which “hERG current change (%, negative = inhibition) at 1uM” value is on record?
**A.** 2.75%

**Q.** `CCCC(C)C(=O)Nc1ccc(S(=O)(=O)Nc2nccc(C)n2)cc1` (centres unmarked) was tested. Which “hERG current change (%, negative = inhibition) at 1uM” value did it give?
**A.** 10.5%

**Q.** Which “hERG current change (%, negative = inhibition) at 1uM” value does the source give for `O=S1(=O)CCN2C(c3cccc4ccccc34)=CSC2=N1` here?
**A.** 5.62%

**Q.** Which “hERG current change (%, negative = inhibition) at 1uM” value does the source give for `O=S1(=O)CCC(NC(=S)Nc2ccc(Cl)cc2)C1` (centres unmarked) here?
**A.** 3.6%

**Q.** Which “hERG current change (%, negative = inhibition) at 1uM” value does the source give for `O=C(Nc1nc(-c2ccccc2)ns1)c1ccncc1` here?
**A.** 7.82%

**Q.** For `C/C(=N\NC(=O)C1=NNC(=O)C1C)c1cccs1` (centres unmarked), which “hERG current change (%, negative = inhibition) at 1uM” value is on record?
**A.** 10.4%

**Q.** `O=C(Nc1ccccc1)C1CCN(C(=O)c2ccccc2)CC1` was tested. Which “hERG current change (%, negative = inhibition) at 1uM” value did it give?
**A.** 10.7%

**Q.** For `O=C(CCNS(=O)(=O)c1ccccc1)OCC(=O)c1ccc(F)cc1`, which “hERG current change (%, negative = inhibition) at 1uM” value is on record?
**A.** 6.49%

**Q.** `Cc1ccc2cc(CCNC(=O)c3cccs3)c(=O)[nH]c2c1` was tested. Which “hERG current change (%, negative = inhibition) at 1uM” value did it give?
**A.** 2.23%

**Q.** With `O=C(Cc1cccs1)NNC(=O)C12CC3CC(CC(C3)C1)C2` as the molecule, how does the “hERG current change (%, negative = inhibition) at 1uM” value read?
**A.** 11.7%

**Q.** `CCc1ccc(CCC(=O)Nc2ccc(Cl)cc2)o1` was tested. Which “hERG current change (%, negative = inhibition) at 1uM” value did it give?
**A.** 10.3%

**Q.** With `CCOC(=O)C1(CC2CCCCO2)CCN(C(=O)Nc2cccc(SC)c2)CC1` (centres unmarked) as the molecule, how does the “hERG current change (%, negative = inhibition) at 1uM” value read?
**A.** 11.5%

**Q.** With `Cc1ccc(N2C(=O)C3C(C2=O)N2CCCN2C3c2ccccc2)cc1C` (centres unmarked) as the molecule, how does the “hERG current change (%, negative = inhibition) at 1uM” value read?
**A.** 10.5%

**Q.** Which “hERG current change (%, negative = inhibition) at 1uM” value does the source give for `CCOC(=O)c1nn(-c2ccccc2C)c2nc(-c3ccc(Cl)cc3)c(C#N)c(=O)n12` here?
**A.** 9.23%

**Q.** Which “hERG current change (%, negative = inhibition) at 1uM” value does the source give for `CC1=NC(=O)C(N=Nc2ccccc2)N1c1ccccc1` (centres unmarked) here?
**A.** -6.61%

**Q.** Which “hERG current change (%, negative = inhibition) at 1uM” value does the source give for `COc1ccc(NCC(=O)N/N=C(\C)c2cc3ccccc3o2)cc1` here?
**A.** 9.5%

**Q.** Which “hERG current change (%, negative = inhibition) at 1uM” value does the source give for `CCOC(=O)N1CCN(C(=O)CN(c2ccccc2)S(C)(=O)=O)CC1` here?
**A.** 21.9%

**Q.** How did the “hERG current change (%, negative = inhibition) at 1uM” value turn out when `CSc1cccc(NC(=O)C(=O)NCc2ccccc2)c1` was run?
**A.** 0.554%

**Q.** How did the “hERG current change (%, negative = inhibition) at 1uM” value turn out when `O=C(CNCc1ccc(Cl)cc1)NCc1ccco1.O=C(O)C(=O)O` was run?
**A.** 3.08%

**Q.** Which “hERG current change (%, negative = inhibition) at 1uM” value does the source give for `COc1ccc(NC(=O)c2cccs2)cc1OC` here?
**A.** 8.75%

**Q.** With `Clc1ccc(Sc2oc(/C=N/n3cnnc3)cc2Br)cc1` as the molecule, how does the “hERG current change (%, negative = inhibition) at 1uM” value read?
**A.** 4.18%

**Q.** With `COc1ccc(OCC(=O)Nc2nc3ccccc3[nH]2)cc1` as the molecule, how does the “hERG current change (%, negative = inhibition) at 1uM” value read?
**A.** 3.55%
